{"source": "PubChem BioAssay AID686978", "about": "(National Center for Advancing Translational Sciences (NCATS), 2013)", "note": "“And” between values parts separate entries of the source, which are not always exact repeats. Identical values can stand only once. Hit rate of the full screen: of about 420,000 compounds, about 64,000 (15%) were called active. The shares of active, inactive and inconclusive entries below differ from those in the screen. Calls follow the shape of the dose curve; as a rule, active = well fitted inhibition curve with a large enough effect; inconclusive = small, poorly fitted or top-dose-only effect; inactive = flat fitted curve, though single readings scatter. Potencies beside an inconclusive call are fits to weak or partial responses and may not hold up. Potency is read from the fitted curve at half-maximal effect; tags tell the direction and shape of the fitted curve."}
{"test": "qHTS for Inhibitors of human tyrosyl-DNA phosphodiesterase 1 (TDP1): qHTS in cells in absence of CPT; also: nearly all actives have a fitted effect of over 55% in size", "conditions": "DT40 Tdp1-/- hTDP1 cells, no CPT, ATP luminescence, 48 h; series mostly up to 46.2 µM", "source_text": "Human tyrosyl-DNA phosphodiesterase 1 (TDP1) is a novel repair gene, and we propose to use it as a new target for anticancer drug development. TDP1 is not an essential protein, but under treatment with topoisomerase I poison (camptothecin: CPT), TDP1 works as a critical factor for cell survival. To directly identify novel TDP1 inhibitors active in a cellular environment, we have knocked-out the Tdp1 gene in chicken DT40 cells (Tdp1-/-) and generated a complemented counterpart cells that contains a stable transfection of the human TDP1 gene (Tdp1-/-;hTDP1 cells). For the primary screen, Tdp1-/-;hTDP1 cells will be exposed to small molecules in the presence or absence of CPT, and their growth kinetics will be evaluated after 48 hours by measuring ATP activity. […] The hit compounds will then be evaluated in the presence or absence of CPT using Tdp1-/- cells. […] In tertiary assays, biochemical gel-based assays will be used to assess whether the hit compounds specifically target TDP1.\nTo this end, we have screened this cell line against the MLSMR in two primary screens. In one screen we add CPT and in the other we screen in the absence of CPT; this AID represents the screen where CPT was absent.\nNIH Chemical Genomics Center [NCGC]\nNIH Molecular Libraries Probe Centers Network [MLPCN]\nAssay Submitter (PI): Yves Pommier, NCI\nDT40-hTDP1 cells without 20 nM Camptothecin (add 20 microL of DMSO in 1 L of cell culture medium) were dispensed at 400 cells/5microL/well in tissue culture treated 1536-well white wall/solid bottom assay plates (Greiner Bio-One North America, NC, U.S.A.) using a Multidrop Combi 8 channel dispenser (Thermo Fisher, Waltham, MA, USA). 23 nL compounds and controls were transferred using the pin tool (Kalypsys, San Diego, CA, USA) to the assay plates. The assay plates were then incubated at 37 masculineC for a minimum 48 hr. Three microL of Cell Titer Glo solution was added to the plates and incubated at RT in dark for 30 min. Luminescence was read using ViewLux (Perkin Elmer) with 1 sec exposure slow speed, high gain and 2x binning."}
{"smiles": "COC(=O)c1cc2c(C)c(C)c3ccccn3c-2c1C(=O)OC", "Potency": "inconclusive: 29.1 µM [inhibitor, single point]"}
{"smiles": "CCCCN(CC)S(=O)(=O)N1CCC(C(=O)NCc2ccc(F)cc2)CC1", "Potency": "inconclusive: 17.8 µM [inhibitor, single point]"}
{"smiles": "CCN(CC(=O)Nc1c(F)cccc1F)C(=O)CC1CCCCC1", "Potency": "inactive"}
{"smiles": "O=Cc1ccccc1-c1cn(CCCOCc2ccccc2)nn1", "Potency": "inactive and inconclusive: 28.2 µM [inhibitor, single point]"}
{"smiles": "CC(=O)c1cccc(-c2ccnc3c2CC(C(=O)NC(C)C)O3)c1", "note": "(stereo not drawn)", "Potency": "inactive"}
{"smiles": "CCn1ncc(/C=N\\NC(=O)COc2cc(C)cc(C)c2)c1C", "Potency": "inconclusive: 16.4 µM [inhibitor, single point]"}
{"smiles": "Cc1ccccc1-c1nn(-c2ccccc2)cc1C(=O)NCC(c1ccco1)N1CCCC1", "note": "(stereo not drawn)", "Potency": "active: 18.4 µM"}
{"smiles": "Cc1csc(NC(=O)CSCc2c(C)noc2C)n1", "Potency": "inactive"}
{"smiles": "C[C@@H](NCc1cc(Br)cc2[nH]c(=O)c(=O)[nH]c12)P(=O)(O)O", "Potency": "inactive"}
{"smiles": "CC1(C(=O)Nc2cccc(NS(C)(=O)=O)c2)CCN1CCc1ccccc1", "note": "(stereo not drawn)", "Potency": "inconclusive: 13 µM [inhibitor, partial curve, poor fit]"}
{"smiles": "c1ccc(-c2cnnc(N3CCOCC3)n2)cc1", "Potency": "inconclusive: 18.4 µM [inhibitor, partial curve]"}
{"smiles": "COc1ccc(CCNC(=O)CSc2nc(C)nc3c2oc2ccccc23)cc1OC", "Potency": "inconclusive: 20.6 µM [inhibitor, single point]"}
{"smiles": "COc1ccc(CCCc2nnc(SCC(=O)Nc3ncc(C)s3)o2)cc1", "Potency": "inconclusive: 29.1 µM [inhibitor, single point]"}
{"smiles": "C#CC1(O)CCC2C3CCc4cc(O)cc(C)c4C3CCC21C", "note": "(stereo not drawn)", "Potency": "inconclusive: 16.4 µM [inhibitor, single point]"}
{"smiles": "CCCCC1NC(=S)N(C2CCCCC2)C1=O", "note": "(stereo not drawn)", "Potency": "inconclusive: 29.1 µM [inhibitor, single point]"}
{"smiles": "COc1ccccc1N1CCN(CC(O)COc2ccc3c(c2)OCO3)CC1", "note": "(stereo not drawn)", "Potency": "inconclusive: 23.1 µM [inhibitor, partial curve, poor fit]"}
{"smiles": "CN(Cc1ccccc1)C(=O)COC(=O)C12CC3CC(CC(Br)(C3)C1)C2", "Potency": "inconclusive: 29.1 µM [inhibitor, single point]"}
{"smiles": "OC(c1cccnc1)c1nc(-c2ccc3c(c2)OCO3)cs1", "note": "(stereo not drawn)", "Potency": "inconclusive: 29.1 µM [inhibitor, single point]"}
{"smiles": "O=C(Nc1cccc(-c2nc3ccccc3o2)c1)c1ccc(-c2ccc(Br)cc2)o1", "Potency": "active: 10.3 µM"}
{"smiles": "C=CCNC(=O)CN1CCN(C(c2ccccc2)c2ccccc2)CC1", "Potency": "inconclusive: 10.3 µM [inhibitor, single point]"}
{"smiles": "Cc1ccc(S(=O)(=O)N2CCC(=O)N(C(COCc3cccc(C)c3)C(C)C)CC2)cc1", "note": "(stereo not drawn)", "Potency": "inconclusive: 16.4 µM [inhibitor, partial curve]"}
{"smiles": "O=S1(=O)N=C(N(CCO)/N=C/c2ccc(Br)cc2)c2ccccc21", "Potency": "inactive"}
{"smiles": "NC(=O)C1=C[C@@H](c2ccc3c(c2)OCO3)C[C@@H](OCCCCO)O1", "Potency": "inactive"}
{"smiles": "COc1ccc(-n2nnnc2C(C2CC2)N2CCN(C/C=C/c3ccccc3)CC2)cc1", "note": "(stereo not drawn)", "Potency": "inconclusive: 29.1 µM [inhibitor, single point]"}
{"smiles": "COc1cccc(/C=C2\\SC(=S)N(CCC(=O)NC3C=CS(=O)(=O)C3)C2=O)c1", "note": "(stereo not drawn)", "Potency": "inconclusive: 29.1 µM [inhibitor, partial curve]"}
{"smiles": "CC(=O)/C(=N/Nc1ccc(Br)cc1)Sc1cccc2cccnc12", "Potency": "inconclusive: 32.6 µM [inhibitor, single point]"}
{"smiles": "Cc1ccc(S(=O)(=O)N2CCOCC2)s1", "Potency": "inactive"}
{"smiles": "O=C(COC(=O)c1cc([N+](=O)[O-])ccc1NCc1ccccc1)NC1CCCc2ccccc21", "note": "(stereo not drawn)", "Potency": "inconclusive: 29.1 µM [inhibitor, single point]"}
{"smiles": "CCN(CC(=O)NCc1cccs1)S(=O)(=O)c1ccccc1Cl", "Potency": "inconclusive: 20.6 µM [inhibitor, single point]"}
{"smiles": "COC(=O)C(=C/C(C)=C/c1cccs1)C(=O)OC", "Potency": "inconclusive: 18.4 µM [inhibitor, single point]"}
{"smiles": "CC12C(=O)N(CCC(=O)O)C(=O)C1C1C=CC2C1", "note": "(stereo not drawn)", "Potency": "inactive"}
{"smiles": "COc1cc(OC)c(C2C(C(=O)N3CCOCC3)=C(C)NC3=C2C(=O)CC(C)(C)C3)cc1OC", "note": "(stereo not drawn)", "Potency": "inactive"}
{"smiles": "O=C(CSc1nnc(-c2ccccn2)o1)Nc1ccc(F)cc1", "Potency": "inactive"}
{"smiles": "O=S(=O)(Nc1ccc(-c2ccc(N3CCCC3)nn2)cc1)c1ccc(Cl)cc1", "Potency": "inconclusive: 29.1 µM [inhibitor, single point]"}
{"smiles": "Nc1cc(C(F)(F)F)cc2c1SCC(=O)N2", "Potency": "inconclusive: 20.6 µM [inhibitor, partial curve]"}
{"smiles": "CCOc1ccc(CNS(=O)(=O)c2c(C(=O)N3CCC(C)CC3)c(C)n(C)c2C)cc1OC", "Potency": "inactive"}
{"smiles": "CC(OC(=O)CCc1nc2ccccc2c(=O)[nH]1)C(=O)Nc1ncc(Cl)cc1Cl", "note": "(stereo not drawn)", "Potency": "inactive"}
{"smiles": "Cc1ccc2nc3c(cc2c1)c(NC(=O)c1ccco1)nn3CC(C)C", "Potency": "inconclusive: 29.1 µM [inhibitor, single point]"}
{"smiles": "O=C(c1cccc(S(=O)(=O)N2CCCCC2)c1)N1CCCCC1", "Potency": "inactive"}
{"smiles": "CCOC(=O)Cc1nc(-c2cccc(C(F)(F)F)c2)no1", "Potency": "inactive"}
{"smiles": "COc1cc(/C=C/c2cccc[n+]2C)ccc1OCC(=O)Nc1cccc(Cl)c1", "Potency": "active: 18.4 µM"}
{"smiles": "Cc1cccc2nc(CNC(=O)CN3Cc4cc(Cl)ccc4OC(C)C3)cn12", "note": "(stereo not drawn)", "Potency": "active: 5.8 µM"}
{"smiles": "O=C(O)c1cn2c3c(ccc(Cl)c3c1=O)OCC2", "Potency": "inconclusive: 11.6 µM [inhibitor, partial curve, poor fit]"}
{"smiles": "CCOc1ccc2[nH]c(=O)c(CN(Cc3ccco3)C(CC)c3nnnn3Cc3ccccc3)cc2c1", "note": "(stereo not drawn)", "Potency": "inconclusive: 29.1 µM [inhibitor, single point]"}
{"smiles": "c1ccc(C(CN2CCCCC2)Oc2ccccn2)cc1", "note": "(stereo not drawn)", "Potency": "inactive"}
{"smiles": "CCOc1ccccc1-n1cnc2cc(C(=O)NCc3ccco3)ccc21", "Potency": "inconclusive: 29.1 µM [inhibitor, single point]"}
{"smiles": "COc1ccc(CN(Cc2ccccc2)C(=O)c2ccncc2)cc1COc1ccc(NC(C)=O)cc1", "Potency": "active: 11.2 µM"}
{"smiles": "COc1ccc(C(c2nnnn2C2CCCCC2)N2CCN(c3ccccc3F)CC2)cc1", "note": "(stereo not drawn)", "Potency": "inconclusive: 16.4 µM [inhibitor, single point]"}
{"smiles": "COc1ccc(NC(=O)c2cc(C)nc3ccccc23)cc1S(=O)(=O)Nc1ccccc1Cl", "Potency": "inconclusive: 20.6 µM [inhibitor, partial curve]"}
{"smiles": "CCc1nc2c(OCc3ccccc3C(=O)OC)cccn2c1N(C)C(=O)c1cccs1", "Potency": "active: 29.1 µM"}
{"smiles": "Cc1ccc(NS(=O)(=O)c2ccc3c(c2)N(C)CCO3)cc1", "Potency": "inconclusive: 20.6 µM [inhibitor, single point]"}
{"smiles": "CCCCCCCCCCCCC(NC(C)=O)(C(=O)OCC)C(=O)OCC", "Potency": "active: 20.6 µM"}
{"smiles": "Cc1cccc(NC(=O)c2oc(=O)c3ccccc3c2-c2ccccc2)c1C", "Potency": "active: 11.6 µM"}
{"smiles": "CCOc1ccccc1NC(=S)N(CCC(C)C)C1CCN(C(C)=O)CC1", "Potency": "inconclusive: 23.1 µM [inhibitor, single point]"}
{"smiles": "CCOc1ccccc1CN1CCN(Cc2cccc3c2OCO3)CC1CCO", "note": "(stereo not drawn)", "Potency": "inconclusive: 18.4 µM [inhibitor, partial curve]"}
{"smiles": "O=[N+]([O-])c1cc(CN2CCCC2)c2cccnc2c1O", "Potency": "inconclusive: 29.1 µM [inhibitor, single point]"}
{"smiles": "COc1cc(/C=N/NC(=O)c2cc(C34CC5CC(CC(C5)C3)C4)[nH]n2)ccc1O", "Potency": "inconclusive: 29.1 µM [inhibitor, single point]"}
{"smiles": "CCOC(=O)c1ccc(NC(=O)CSc2nnc(-c3cccs3)n2CC)cc1", "Potency": "inconclusive: 1.3 µM [inhibitor, partial curve]"}
{"smiles": "Cc1ccc(CNS(=O)(=O)c2c(C(=O)N3CCCCCC3)c(C)n(C)c2C)cc1", "Potency": "inactive"}
{"smiles": "CC(=NCc1ccccc1)c1ccc(O)cc1O", "Potency": "inconclusive: 4.61 µM [inhibitor, single point]"}
{"smiles": "CCOC(=O)N1CCN(C(=O)c2cccn3c(=O)c4cc(Br)ccc4nc23)CC1", "Potency": "inactive"}
{"smiles": "COc1ccccc1N1CCN(CC(=O)Nc2nccs2)CC1", "Potency": "inactive"}
{"smiles": "Cn1c(=O)c2sccc2n2c(CCCC(=O)NCc3ccco3)nnc12", "Potency": "inactive"}
{"smiles": "CCOC(=O)C(Cc1ccc(N)cc1)N1C(=O)c2ccccc2C1=O", "note": "(stereo not drawn)", "Potency": "inconclusive: 10.3 µM [inhibitor, partial curve]"}
{"smiles": "Cc1cc(N/N=C/c2ccccc2)nc(NCc2ccccc2)n1", "Potency": "active: 2.59 µM"}
{"smiles": "CCOc1ccc(Cl)cc1C1=CC(=O)C[C@H](c2ccc(OC)cc2)C1", "Potency": "active: 4.11 µM"}
{"smiles": "CCn1c(=O)n(CC)c2cc(N3CCCC3)c(NC(=O)c3ccccc3C)cc21", "Potency": "active: 20.6 µM"}
{"smiles": "CS/C(=N\\S(=O)(=O)c1cccs1)Nc1ccc(Br)cc1F", "Potency": "inconclusive: 29.1 µM [inhibitor, single point]"}
{"smiles": "C[C@@H]1CN([C@H](C)CO)C(=O)CCCn2nncc2CO[C@@H]1CN(C)C(=O)Nc1ccnc(N2CCOCC2)c1", "Potency": "inactive"}
{"smiles": "COc1cc(C2C(C#N)=C(N)Oc3cc(C)oc(=O)c32)cc(OC)c1OC", "note": "(stereo not drawn)", "Potency": "active: 23.1 µM"}
{"smiles": "O=C(Cn1cnc2sc(-c3ccccc3)cc2c1=O)N1CCOCC1", "Potency": "inactive"}
{"smiles": "Cc1ccc(CN(C)C[C@@H]2OCc3cnnn3CCCC(=O)N([C@@H](C)CO)C[C@H]2C)cc1", "Potency": "inactive"}
{"smiles": "O=C(c1ccc(F)cc1)N1c2nc(-c3ccco3)nn2C2(CCCCC2)[C@@H]2CCCC[C@@H]21", "Potency": "active: 23.1 µM"}
